The source of these data is PMC5842915 (Biochemistry, 2017).

As usually defined, the Kd is the equilibrium constant for the complex coming apart. A high value points to a looser complex. The term stoichiometry N denotes the number of molecules, sites or subunits per partner or assembly.

T1: BECN1 BH3 peptide (residues 97-126) (human)
T1 peptide: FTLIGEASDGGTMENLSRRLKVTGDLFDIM

B1: full-length, human Beclin-1 (BECN1) (natural protein)
chain: not shown
B2: human Bcl-2 ([…]) (domain or fragment)
chain: not shown

The data set “AUC” concerns the molecule itself. Nature of the data set: AUC.
The data set “SEC-MALS” concerns the molecule itself. Nature of the data set: SEC-MALS. (Size exclusion chromatography separates by hydrodynamic size, large species first.)
In data set [1] the target is V250A/M254A/L261A mutant of full-length BECN1 (human, UniProt Q14457, V250A | M254A | L261A). Nature of the data set: ITC. (In general: Isothermal titration calorimetry measures the heat released or taken up as one component is titrated into another.)
Data set [2] concerns the target B1. The data set is described as follows: ITC.
Data set [3] addresses BECN^1-265 (BECN1 residues 1-265, BARA-less construct) (human, UniProt Q14457 1-265). Nature of the data set: ITC.
For data set [4], the target named is T1, BECN1 BH3 peptide (residues 97-126). Nature of the data set: ITC.

Regarding B1, the Kd was 390 nM in “AUC” and approximately 480 nM in “SEC-MALS”.

As to B2, the Kd in data set [1] was determined as 2700 ± 700 nM; in data set [2], 4300 nM; in data set [3], 9100 nM. Also, the dH in data set [2] is -7.9 kcal/mol; in data set [3] it was -8.3 kcal/mol; in data set [4] it was -3.8 kcal/mol. Besides, the “stoichiometry N” value in data set [2] was 1.01; in data set [3], 0.87; in data set [4], 1.02.
